Laboratory results as given in PubChem BioAssay AID624296 (National Center for Advancing Translational Sciences (NCATS), 2012).
Where “and” joins values, the source holds several entries; their conditions need not be identical. Identical values can stand only once. Hit rate of the full screen: of about 350,000 compounds, about 9,900 (2.8%) were called active. The shares of active, inactive and inconclusive entries below differ from those in the screen. Calls follow the shape of the dose curve; as a rule, active = well fitted activation curve with a large enough effect; inconclusive = small, poorly fitted or top-dose-only effect; inactive = no such curve, though single readings can be large or run the other way. Where the call is inconclusive, the potency comes from a doubtful curve fit.

assay: A quantitative high throughput screen for small molecules that induce DNA re-replication in MCF 10a normal breast cells.; also: nearly all actives have a fitted effect of over 50% in size; settings: MCF 10A DNA re-replication, Hoechst nuclear intensity, 48 h; series mostly up to 46.1 µM
Potency is read from the fitted curve at half-maximal effect; tags tell the direction and shape of the fitted curve.

Row | SMILES | Potency
1 | Cc1ccccc1-n1nnnc1SC(C)C(=O)Nc1ccc(N2CCN(C)CC2)cc1 (stereo not drawn) | inconclusive: 0.517 µM [activator, full curve]
2 | CN(CC(=O)NCCCc1ccccc1)S(=O)(=O)c1ccc(Br)cc1 | inactive
3 | O=c1[nH][nH]c(-c2ccccc2O)c1C(C[N+](=O)[O-])c1cccc(Cl)c1 (stereo not drawn) | inconclusive: 16.4 µM [activator, single point]
4 | Cc1[nH][nH]c(=O)c1C(c1ccc(-c2ccc(F)cc2)o1)c1c(C)[nH][nH]c1=O | inconclusive: 25.9 µM [activator, single point]
5 | CC(C)c1ccc2c(c1)C1Cc3ccccc3C1N2 (stereo not drawn) | inconclusive: 18.4 µM [activator, single point]
6 | COc1ccc(CCC(=O)NC2CCCN(Cc3ccc(Cl)cc3)C2)cc1OC (stereo not drawn) | inactive
7 | NC(=O)c1ccc[n+](CC(=O)c2ccccc2)c1 | inconclusive: 23.1 µM [activator, single point]
8 | CCc1ccc(/C(C)=N\Nc2ccc([N+](=O)[O-])cc2)cc1 | active: 9.2 µM
9 | CC(C)NS(=O)(=O)c1ccc(Br)c(C(=O)OC(C)C(=O)NC2CCCCC2C)c1 (stereo not drawn) | inactive
10 | O=C(NCc1ccccc1)c1ccc2c(c1)OCCO2 | inactive
11 | Cc1ccc(-c2nnn(CC(=O)N(Cc3ccco3)C(C(=O)NC3CCCC3)c3cccs3)n2)o1 (stereo not drawn) | inconclusive: 29.1 µM [activator, single point]
12 | Cc1c(C(=O)/C=C/N(C)C)nnn1-c1ccc(Cl)c(Cl)c1 | inconclusive: 29.1 µM [activator, single point]
13 | Cc1noc(NS(=O)(=O)c2ccc(NC(=O)c3oc4ccc(Cl)cc4c3C)cc2)c1C | inconclusive: 23.1 µM [activator, partial curve, poor fit]
14 | C=CCn1c(=NC(=O)c2ccc(S(=O)(=O)N3CCc4ccccc4C3)cc2)sc2cc(S(N)(=O)=O)ccc21 | active: 9.2 µM
15 | Cc1ccc(NC(=O)c2cnc(SCC(=O)NCC3CCCO3)n(C)c2=O)cc1 (stereo not drawn) | inconclusive: 29.1 µM [activator, single point]
16 | CC1CCCC(NC(=O)NC(=O)CCl)C1C (stereo not drawn) | inconclusive: 25.9 µM [activator, partial curve, poor fit]
17 | Cc1cc(C(=O)NC(C)Cc2ccccc2)cc(C)c1[N+](=O)[O-] (stereo not drawn) | inactive
18 | CCOC(=O)N1CCN(S(=O)(=O)c2ccc(C(=O)Nc3sc4c(c3C(N)=O)CCN(CC)C4)cc2)CC1 | inconclusive: 23.1 µM [activator, single point]
19 | O=C(CN1CCCCC1)Nc1c2c(nc3ccccc13)N(c1ccccc1)CC2 | inconclusive: 7.31 µM [activator, partial curve, poor fit]
20 | Cc1ccc(SC[C@H](c2ccccc2)N2CCN(C)CCC2=O)cc1 | inconclusive: 0.291 µM [activator, full curve]
21 | CCCC1=Nc2cc(C(=O)N3CCCC3)ccc2Sc2ccc(C)cc21 | inconclusive: 29.1 µM [activator, single point]
22 | COc1c(C)cc(C(=O)C2CCCN(C(=O)C3=C(C)OCCO3)C2)cc1C (stereo not drawn) | inactive

Row | SMILES | Potency
23 | O=C(O)CCNC(=O)c1ccc(NC(=O)C(c2ccccc2)c2ccccc2)cc1 | inconclusive: 29.1 µM [activator, single point]
24 | c1ccc(C2C3=C(Nc4ncnn42)c2ccccc2CCC3)cc1 (stereo not drawn) | inconclusive: 6.51 µM [activator, single point]
25 | Cc1ccccc1N1C(=O)CC1(C#N)c1ccc(OCc2ccccc2)cc1 (stereo not drawn) | inconclusive: 16.4 µM [activator, partial curve]
26 | COC(=O)c1ccc(COc2ccccc2/C=C/C(=O)c2ccc(OCC(=O)O)cc2)cc1 | inconclusive: 25.9 µM [activator, single point]
27 | Cc1cccc(NC(=O)CSc2nc(COc3ccccc3)nc3ccccc23)c1C | inactive
28 | OCCC1CN(Cc2cccn2-c2nccs2)CCN1Cc1ccccc1 (stereo not drawn) | inactive
29 | O=C(Nc1cc(S(=O)(=O)N2CCCCC2)ccc1O)c1ccccc1NS(=O)(=O)c1ccc(F)cc1 | inconclusive: 14.6 µM [activator, partial curve] and inconclusive: 20.6 µM [activator, single point]
30 | O=C(NCc1cccc(CNC(=O)c2ccco2)c1)c1ccco1 | inconclusive: 7.31 µM [activator, partial curve, poor fit]
31 | COCc1cc(CN2CCCC2)c(O)c2ncccc12 | inactive
32 | Cc1cccc(Cn2c(O)c(N=NC(=S)Nc3ccccc3F)c3ccccc32)c1 | inactive
33 | CCN1CCN(c2ccc(Cl)cc2NC(=O)c2ccco2)CC1 | inactive
34 | O=c1c2ccccc2[nH]c2ccc(O)cc12 | inactive
35 | CC(C)Oc1ccc(CC(=O)NNC(=S)Nc2ccc(Br)cc2)cc1 | active: 16.4 µM
36 | CCc1ccc(NC(=O)Cc2cn(C)c3ccccc23)cc1 | inconclusive: 16.4 µM [activator, partial curve, poor fit]
37 | CN(C)C(CNC(=O)C1CCN(S(=O)(=O)c2cccc(Cl)c2Cl)CC1)c1ccccc1 (stereo not drawn) | inconclusive: 29.1 µM [activator, single point]
38 | O=C(NCCc1ccncc1)c1ccc2nc(Cc3cccc(Cl)c3)oc2c1 | inconclusive: 23.1 µM [activator, single point]
39 | Cc1cc(Cl)cc(C)c1OCCNCc1ccccc1 | inconclusive: 14.6 µM [activator, partial curve, poor fit]
40 | O=C(NCC1CCCO1)C(=O)N/N=C\c1ccc2c(c1)OCO2 (stereo not drawn) | inactive
41 | CCOCCn1ccc2c(OCC(=O)Nc3ccccc3OC)cccc2c1=O | inconclusive: 1.03 µM [activator, partial curve, poor fit]
42 | CC(C)(C)C(=O)/C=c1\s/c(=C\c2ccc(-c3ccc([N+](=O)[O-])cc3)o2)c(=O)n1CC(=O)NC(N)=O | inconclusive: 10.3 µM [activator, single point]
43 | Cn1c(N)c(C(C[N+](=O)[O-])c2c(F)cccc2Cl)c(=O)n(C)c1=O (stereo not drawn) | inconclusive: 20.6 µM [activator, single point]
